Results reported in the BET-seq Pho4 binding data (Le et al. 2018).
The list shows a part of the results. The energies were worked out here from pooled read counts, against the library average; single values are noisy.

target: T1, Pho4 (S. cerevisiae) (UniProt P07270); assay: relative binding free energy (BET-seq); higher = weaker binding; settings: reference: library average
T1 sequence: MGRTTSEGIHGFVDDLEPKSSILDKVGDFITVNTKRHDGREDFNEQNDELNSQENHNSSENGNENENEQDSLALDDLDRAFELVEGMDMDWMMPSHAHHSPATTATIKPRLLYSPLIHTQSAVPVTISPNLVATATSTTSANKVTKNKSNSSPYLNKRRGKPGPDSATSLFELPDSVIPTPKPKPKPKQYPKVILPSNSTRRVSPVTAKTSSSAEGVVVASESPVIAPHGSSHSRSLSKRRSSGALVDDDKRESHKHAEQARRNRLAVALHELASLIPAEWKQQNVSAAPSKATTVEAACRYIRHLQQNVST

| Sequence | relative binding free energy |
| --- | --- |
| AGTAACACGTGTTCGG | -0.02 kcal/mol |
| AAATACACGTGGATGG | 0.12 kcal/mol |
| AGGAGCACGTGCGTTT | -0.1 kcal/mol |
| AATTTCACGTGCTGGC | 0.42 kcal/mol |
| GTTGCCACGTGTTTAA | 0.06 kcal/mol |
| TTAGACACGTGACGTG | 0.07 kcal/mol |
| GTACACACGTGGTATG | 0.03 kcal/mol |
| GCTGTCACGTGAAGGG | 0.38 kcal/mol |
| ATGGTCACGTGTAATA | 0.18 kcal/mol |
| ACGGCCACGTGAGTGG | 0.14 kcal/mol |
| TATGGCACGTGGGCCG | -0.25 kcal/mol |
| ACATGCACGTGGGTGA | -0.19 kcal/mol |
| TACAGCACGTGAGGTG | 0.19 kcal/mol |
| ATGATCACGTGTGATA | 0.33 kcal/mol |
| TTAGCCACGTGTGGAT | -0.01 kcal/mol |
| TTGCGCACGTGGTTAA | -0.18 kcal/mol |
| AGCTCCACGTGGTGGG | -0.16 kcal/mol |
| TGGCGCACGTGGATGA | -0.03 kcal/mol |
| TAGTACACGTGTAGGT | 0.13 kcal/mol |
| GGTTTCACGTGTCTTT | 0.22 kcal/mol |
| GGTGGCACGTGTGCGC | 0.03 kcal/mol |
| ATGTACACGTGGGTAC | -0.1 kcal/mol |
| TGTCGCACGTGGGCTG | -0.38 kcal/mol |

| Sequence | relative binding free energy |
| --- | --- |
| AGGGGCACGTGATGCA | -0.06 kcal/mol |
| TCAGACACGTGGGGTA | -0.15 kcal/mol |
| TGATTCACGTGGACGG | 0.41 kcal/mol |
| TTAGGCACGTGCACGG | -0.15 kcal/mol |
| TTTGACACGTGCGGCG | -0.11 kcal/mol |
| TGACGCACGTGGTATG | -0.22 kcal/mol |
| GTTGGCACGTGCTTGT | -0.09 kcal/mol |
| GTGCACACGTGGGGCG | 0 kcal/mol |
| AGCGTCACGTGTTGTT | -0.07 kcal/mol |
| GTTGACACGTGAGTAG | 0.25 kcal/mol |
| TGGTACACGTGTGAGG | 0.11 kcal/mol |
| GAGAGCACGTGGTTCG | 0.05 kcal/mol |
| TACTGCACGTGGCGGT | -0.13 kcal/mol |
| GTAGTCACGTGGAGCT | 0.26 kcal/mol |
| CTTTTCACGTGAATTT | 0.33 kcal/mol |
| GGTAGCACGTGGAAAG | 0.14 kcal/mol |
| TCTATCACGTGGGGGG | 0 kcal/mol |
| GATGTCACGTGTATAG | 0.22 kcal/mol |
| ATTCCCACGTGTTGGT | 0 kcal/mol |
| GTTGGCACGTGCGGTT | -0.08 kcal/mol |
| TATGGCACGTGTAATA | 0.04 kcal/mol |
| TTTCGCACGTGGCTGG | -0.17 kcal/mol |
| ACGGTCACGTGATTTA | 0.23 kcal/mol |

| Sequence | relative binding free energy |
| --- | --- |
| ATGTTCACGTGAGGCG | 0.34 kcal/mol |
| GGTTACACGTGAGCTT | 0.3 kcal/mol |
| GGCGACACGTGTGTTT | 0.02 kcal/mol |
| CGTGGCACGTGGGCCG | -0.15 kcal/mol |
| GCTAACACGTGTGTGT | 0.02 kcal/mol |
| CTGGTCACGTGGTTTA | 0.03 kcal/mol |
| TGAAACACGTGTGGTG | -0.08 kcal/mol |
| AGGGGCACGTGAGACT | 0.17 kcal/mol |
| AGGTGCACGTGTCGGC | 0.06 kcal/mol |
| GTTATCACGTGATAAT | 0.19 kcal/mol |
| TCTGGCACGTGGTAGT | -0.21 kcal/mol |
| AGTGTCACGTGAGGAG | 0.23 kcal/mol |
| AAGCACACGTGGTGGT | 0.01 kcal/mol |
| GGTAACACGTGATCTG | 0.31 kcal/mol |
| TTAGACACGTGGCTTG | -0.13 kcal/mol |
| GTCCTCACGTGTGGTG | 0.13 kcal/mol |
| TCTGGCACGTGTGGTC | -0.09 kcal/mol |
| GGGGTCACGTGAAATT | 0.35 kcal/mol |
| GTTAGCACGTGTGTCA | -0.02 kcal/mol |
| GGTAGCACGTGATGAA | 0.17 kcal/mol |
| TGGGACACGTGTGCGT | 0.11 kcal/mol |
| TGTTTCACGTGTGGGC | 0.31 kcal/mol |
| CGTGTCACGTGTAGTT | 0.12 kcal/mol |

| Sequence | relative binding free energy |
| --- | --- |
| TCGGGCACGTGCGGGG | -0.1 kcal/mol |
| AATGTCACGTGGGTAG | -0.04 kcal/mol |
| TGTTGCACGTGTTCAA | -0.14 kcal/mol |
| GTCATCACGTGTGATG | 0.24 kcal/mol |
| GGTGGCACGTGTACGC | 0.04 kcal/mol |
| ATGAGCACGTGTTCGG | -0.06 kcal/mol |
| GTGGCCACGTGGGAGT | -0.09 kcal/mol |
| GACGGCACGTGTTTTG | 0.03 kcal/mol |
| TGAGACACGTGGTTGG | 0.04 kcal/mol |
| GTCTGCACGTGTACGG | 0.11 kcal/mol |
| GGAACCACGTGGTGGG | -0.1 kcal/mol |
| GGTTTCACGTGGGCGG | 0.24 kcal/mol |
| TTGGACACGTGAATGG | 0.32 kcal/mol |
| CGTATCACGTGGAAGG | 0.09 kcal/mol |
| TATCTCACGTGATGGG | 0.39 kcal/mol |
| TGTTACACGTGAGAGG | 0.25 kcal/mol |
| AAAGTCACGTGTTGGG | 0.13 kcal/mol |
| TACAGCACGTGTTGGT | -0.02 kcal/mol |
| TTTTACACGTGAGACG | 0.34 kcal/mol |
| ATGTACACGTGTGGTT | 0.02 kcal/mol |
| CGGTACACGTGGCGTT | 0.08 kcal/mol |
| TTTGGCACGTGTTTAA | -0.04 kcal/mol |
| TGAATCACGTGGTGAA | 0.26 kcal/mol |

| Sequence | relative binding free energy |
| --- | --- |
| CGCGTCACGTGGGTGA | -0.01 kcal/mol |
| GGTTTCACGTGTTGGC | 0.35 kcal/mol |
| GTATACACGTGTTTTC | 0.08 kcal/mol |
| GTCTTCACGTGAGGGA | 0.28 kcal/mol |
| GGTCACACGTGTTAGT | 0.28 kcal/mol |
| ATTCTCACGTGGGCGT | 0.14 kcal/mol |
| TGTTTCACGTGTATAG | 0.36 kcal/mol |
| TCCTTCACGTGAGTTG | 0.52 kcal/mol |
| GATGACACGTGGGTTC | 0.09 kcal/mol |
| ATGGTCACGTGGAGGG | 0.03 kcal/mol |
| CTATGCACGTGAGGTG | -0.03 kcal/mol |
| AGTTACACGTGGATTA | 0.13 kcal/mol |
| CAGTACACGTGATGTG | 0.14 kcal/mol |
| TGCGGCACGTGATGGG | 0.02 kcal/mol |
| GAGGTCACGTGGGATC | 0.04 kcal/mol |
| TGCGGCACGTGGTGTT | -0.16 kcal/mol |
| AGAAGCACGTGTTTGG | 0.07 kcal/mol |
| GTTGGCACGTGACTGA | 0.04 kcal/mol |
| CATGGCACGTGCGGGC | -0.13 kcal/mol |
| TCGGGCACGTGTAGGG | -0.01 kcal/mol |
| TGACACACGTGTTGGT | -0.15 kcal/mol |
| TGGCTCACGTGCGTTG | 0.17 kcal/mol |
| AGCGTCACGTGTGGTC | 0.21 kcal/mol |
